From the supplement of paper PMC11417369
The other results are listed elsewhere or left out.

System: PfAP2-HC AP2 domain (GST-tagged)
Assay: gcPBM binding intensity (ln(normalized median fluorescence intensity)); higher = stronger DNA binding
How it was run: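 Binding intensity values are the highest Masliner-normalised natural-log median intensity among replicate spots of either probe orientation. The binding step lasted 1 h in 1× PBS with 1% milk, 0.2 mg/ml BSA, 0.5% salmon testes DNA and 0.03% Triton X-100, using GST-tagged P. falciparum DNA-binding domains expressed in E. coli on an Agilent 4 × 180k array of primer-extended double-stranded 36-bp intergenic genomic probes plus negative controls. Alexa488 anti-GST antibody and a 488 nm scan detected bound protein.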

| Sequence | gcPBM binding intensity (ln) |
| --- | --- |
| AGGTTAAAAATAAATACACACATTTTATGTCTGTAT [CACACA_site996] | 9.77 |
| ACTATACAGTTATACACACACATATATATATAATAT [CACACA_site310] | 10.1 |
| TTTTTTTTTTAATAAAGTACATATAAATTACCTAAT [XGTACX_site4434] | 9.25 |
| ATTTCTAGTTTAAGATGTACTTTAATAAAAATTATT [XGTACX_site4820] | 9.48 |
| ATCTTTGGAAATTTATGTACTTATATTTATATTGTA [XGTACX_site6606] | 9.74 |
| AAATATCAACAAAAATGTACAAATGTAAAAGAATAT [XGTACX_site4676] | 10 |
| TTATAATATTATAAAATAACATTTATTAATTATTGG [CACACA_negctrl_site1794] | 9.34 |
| TTATTATATTAAAATTGTACTTGCTTTCAATATGAT [XGTACX_site5305] | 9.48 |
| TAAACGTTATATAGTGCATGTCATATTTTATTATAT [TGCATGCA_site935] | 9.62 |
| TTCCCTCCTCAAAATTGTACTAGAATAATAACATAA [XGTACX_site8765] | 9.38 |
| TACACGCTAAAATACACACACACACCCACATATATA [CACACA_site4153] | 10.6 |
| TTTTTTAAACATATTATGTGTATTACATAGTTATGC [XGTACX_negctrl_site596] | 9.47 |
| AAAAAAAAAAAAAACACACACACAAGAGTATATAAA [CACACA_site6580] | 11.1 |
| ATGAATTTATTACATTGTACATTTTTAAAAGGTTAC [XGTACX_site124] | 9.48 |
| TTATATATTTTTTTTTGTACATAGAAGAGGGAAAAA [XGTACX_site2178] | 9.19 |
| TTCCAAAAAATTATTACACACATATGGGCACATATA [CACACA_site679] | 9.78 |
| TATACATACATACATACACACACACCGATATATACA [CACACA_site8184] | 10.8 |
| TGTTTCTGCTCTGGACATTTTTAAAAAAGGGAAAGC [CACACA_negctrl_site1463] | 9.29 |
| ACGCTAATTATGTGCACACAAATTAAAGGTCTACAA [CACACA_site147] | 9.95 |
| TGCCTATTTTGGATGTGTACACATATATATATTTAT [XGTACX_site6741] | 10.2 |
| ACAAAAAAACATGAAACACACACAAATATATATATA [CACACA_site8566] | 10.1 |
| TATAAAATTAAACAAAGTACTAGACATATATATAGA [XGTACX_site3247] | 9.79 |
| ATTCTATAATATAAGAGTACTTATTTTTTTTAATTT [XGTACX_site7671] | 9.57 |

| Sequence | gcPBM binding intensity (ln) |
| --- | --- |
| AATGTTATTTGTTTATCACACATTAGGATGTTTATA [CACACA_site5710] | 9.76 |
| TATATTATAAACATATGTACATATGTATAAATACAT [XGTACX_site722] | 9.66 |
| AAAAAAAAAAAAAAATTAAAGTAATGGAAAAAAAAA [CACACA_negctrl_site1666] | 9.38 |
| AACATATATATATACACACACATATATATATGAAAT [CACACA_site279] | 10.4 |
| ATTATTAATATTATATGTACGCACTATATCAAGGCT [XGTACX_site6468] | 9.6 |
| AAGGTATTTATAACTACACACTTATTTATAACCTAA [CACACA_site6194] | 9.66 |
| TATACCAATGAATGAGTGCAAAGAAGATAAGGAAAA | 9.74 |
| AATAAAATGAAATGAAATAAAAAAAAAAAAAAAATG [TGCATGCA_negctrl_site305] | 9.62 |
| ACTTATTGTGGTTTTGCATGTAGCATTTTTACATAC [TGCATGCA_site247] | 9.92 |
| AGCTATGTATTCTACACACACATACAGACATATATA [CACACA_site3428] | 10.1 |
| TTTGCATTTCTTAATTGTACTTAAAAAAAAAATAAT [XGTACX_site758] | 9.12 |
| AATCATTTTATTATCCTAACAAAAAAAAAATATATT [CACACA_negctrl_site115] | 9.24 |
| ACGATGCATTAATCTGCACACCACAACAAAACGTTT [CACACA_site899] | 9.8 |
| ACAACGCGTTAAATGTGTACATATTTATAAGTATAT [XGTACX_site8777] | 9.9 |
| ATATATATATATTCCACACACACACCCAAAAAAAAA [CACACA_site3649] | 10.5 |
| ACAAAATAAACCACGTGTACAAATTTATAATGTGTA [XGTACX_site1153] | 9.84 |
| TTTTATTTTTTATTTGCACACAATATGTAAAAAAAT [CACACA_site2927] | 9.65 |
| AATAATTTTTAAATATAAACATTTTTTTTTTTTTTT [GTGCAC_negctrl_site532] | 9.3 |
| ATTAAATGCACATATACACACACCCAATTTTAAGTT [CACACA_site3049] | 10.6 |
| TATTTTAAAAAAAAAAGTACACATAATATATATAAC [XGTACX_site5416] | 9.59 |
| ATACATTTATTGTATTGTACATAATATTATATATTC [XGTACX_site7115] | 9.71 |
| TAATATAATAGAAGTGTACACACATATTTATGGGTG [CACACA_site9023] | 10.1 |
